Sequences with one replicate were seen in a single cluster, so their values are uncertain.
Test system: ATP
Assay: switch fluorescence ratio, 500 uM ATP over buffer (Cy3 cluster intensity, sum of 5 cycles each) (fold (ratio)); higher = stronger signal-on switching upon ATP binding; sequences stand for … in TCGTCGGCAGCGTCAGATGTGTATAAGAGACAGTTTTTTTTTTTTTTTTTTTTTTTTT…TC
Settings: aptamer strand: ATP DNA aptamer (quencher-CACCTGGGGGAGTATTGCGGAGGAAGG + anchor), 100 nM annealed; ATP concentration: 500 uM; one replicate
How it was run: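 Clusters with intensities outside 100-1000 RFU were excluded. The remaining Cy3-labelled switching-strand clusters on a modified Illumina MiSeq flow-cell had been annealed to 100 nM quencher-labelled ATP aptamer and imaged in selection buffer, then after 15 min with 500 uM ATP at 22 °C, for five cycles separated by NaOH stripping and re-annealing. The fluorescence ratio, averaged per switch-domain sequence, is each cluster's summed target-cycle Cy3 intensity over its summed buffer-cycle Cy3 intensity.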
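Note: ATP exposure 15 min at 22 °C before imaging.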

| Sequence | switch fluorescence ratio |
| --- | --- |
| GTTTCGGTTA | 3.13 |
| TCCACTTGGA | 1 |
| ACCATAGGTG | 1.54 |
| ACGTATCAA | 1.14 |
| GCAAAAAGAT | 1.01 |
| ATAAGTCAGG | 0.965 |
| GCCCAATGGA | 0.993 |
| CTTTATTGAT | 0.962 |
| AGTTGAATGC | 1.04 |
| CCTATACGGA | 1.07 |
| GGTCCTGCTC | 0.975 |
| GAACGCGGAG | 1.06 |
| AGGATTGAGG | 0.959 |
| ATCTTTACTC | 1.04 |
| GGGCACCGAT | 1 |
| TGCTGTTTAA | 0.992 |
| TTGCGCACTT | 0.951 |
| GATGCTTAGA | 0.947 |
| AGTATAATGA | 0.992 |
| GCCAGCAGGA | 1.05 |
| TTTATAGTCG | 0.971 |
| GATGGGGTTA | 1.01 |
| CCACTAGGCA | 1.04 |

| Sequence | switch fluorescence ratio |
| --- | --- |
| AATCCAGTTG | 1.01 |
| ATACCTCGAA | 1.01 |
| CTCACGACCT | 1.39 |
| AAAACCATTG | 0.997 |
| CCTTAGTATG | 0.966 |
| GAGTGCAGAC | 1.02 |
| GATAACGGCT | 0.874 |
| AATCCATTCG | 1.03 |
| CTACTGAGGG | 1.05 |
| ACCCGAGTT | 0.985 |
| CGGACCCGCA | 2.05 |
| AAAACCTAG | 1.02 |
| CCAGGTCGGG | 1.11 |
| ATGTCTTATC | 1.02 |
| CATGGGAAAG | 1.05 |
| TACGCTTG | 0.998 |
| CACGTTGGCA | 1.01 |
| TGTCATCGTA | 0.96 |
| CATACTAAAG | 1.07 |
| AATTACTCAA | 1.01 |
| CTCGAAGCAC | 3.03 |
| GTTGGACCTT | 1.25 |
| CGTGTCCTTT | 0.954 |

| Sequence | switch fluorescence ratio |
| --- | --- |
| GTCAGAACGT | 0.991 |
| GAACTAGTAG | 1.02 |
| CGTATTGGTT | 1.01 |
| CCTTCGACC | 3.41 |
| GAATTTTTAG | 0.977 |
| GCAGATCCTG | 0.976 |
| TCTCGCTCTC | 1.62 |
| GGTGTGCCTG | 0.956 |
| CACTTACAG | 1.16 |
| CGCGGGGACG | 1.03 |
| TTGAGGCCCC | 0.988 |
| GCTAGCCTG | 0.967 |
| TGGTAGTGCC | 1.05 |
| ATTCATATTA | 1.02 |
| CGTGGAGAAA | 1.01 |
| AGCTTGACTT | 1.06 |
| TGTGTTGTTC | 1.27 |
| CGACATAGAC | 3.03 |
| CACGATTGCT | 1.05 |
| ATCCCTAGCG | 1.05 |
| AATCACACC | 1.09 |
| CGCGTCTCCG | 1.15 |
| CCGAGGTCTT | 1.37 |

| Sequence | switch fluorescence ratio |
| --- | --- |
| AAGTCAAGGC | 1.12 |
| CCCATGACGT | 0.988 |
| TCAGTAAGTC | 0.991 |
| TGGGTCGCGG | 1.17 |
| GGGGAGGTTA | 1 |
| GGTGGATTAC | 1.04 |
| CGATCGGGG | 0.948 |
| GATATAGCGC | 0.974 |
| CGGATCACGT | 0.983 |
| CTTGCTTTGC | 0.994 |
| TAAGACGGGT | 0.967 |
| CACGAAGTAA | 1.15 |
| AATAGTTGTT | 0.979 |
| ATTTCGCAAT | 2.34 |
| GGAGTAGCAA | 1.53 |
| CCAAGACTCT | 1.25 |
| CGAGAGTCCG | 0.995 |
| ACGGCAGGGG | 1.29 |
| CGCATTTACA | 1.64 |
| TTGAATTCAT | 0.982 |
| CGGCAGCAGG | 1.14 |
| AAGGATCAGC | 1 |
| TGCTTTCATC | 1.01 |

| Sequence | switch fluorescence ratio |
| --- | --- |
| AGTCCGTTCC | 1.32 |
| ATACAACTAT | 1.02 |
| TTTAATAT | 0.962 |
| TGGGTCTGGA | 1.03 |
| CCAGAGTTAT | 1.14 |
| GATTGCTAGG | 1.03 |
| AGTGTTATAA | 0.977 |
| TTACTGACTT | 1.11 |
| GCTCATTTTG | 1 |
| TTGCCGTCCT | 1.01 |
| GGGCGTGTAT | 1.03 |
| GACGAACAAC | 1.54 |
| AAGTTCTCAG | 1.02 |
| TGCGTAGGGA | 1.03 |
| CATCCTGCA | 2.52 |
| AGTGTTGAAC | 1.08 |
| AGCAAAACG | 1.1 |
| CCTGTGGTCG | 1.04 |
| TGTGATACCG | 1.1 |
| CATTCAGATA | 1.02 |
| TGTGTGCACT | 1.01 |
| GCATAATGTC | 1.08 |
| GGTAGTAAAG | 0.971 |

| Sequence | switch fluorescence ratio |
| --- | --- |
| TAGTTAGGCT | 0.944 |
| GTCTCAAGTC | 0.997 |
| ACAGAGGAGA | 1.02 |
| GAGAGGTTTC | 1.01 |
| CACGTCGGTC | 1.05 |
| CAGGTCATCC | 0.971 |
| ACCCGGGATA | 1.09 |
| CCAAATCGGC | 0.914 |
| GTTCAGGAAA | 1.07 |
| ATATGCCTGG | 1.02 |
| GGGAGATATC | 0.974 |
| TTACCCGGTG | 1.97 |
| ACAATCCCAA | 1.11 |
| GACGGATGGT | 0.969 |
| TTGGAGACTA | 1.15 |
| CCGATACTAA | 1.24 |
| GCACCGGGGA | 1.03 |
| AACCATTGAC | 1.07 |
| TTGTGACTGT | 0.979 |
| CGACATAGTA | 1 |
| TCGGTTGCCA | 1.02 |
| ACGTTCACGT | 0.995 |
| TACGTTGGTC | 1.02 |

| Sequence | switch fluorescence ratio |
| --- | --- |
| AGACGAGCCT | 1.14 |
| AAACGTTGTG | 1 |
| CTCATCAGAT | 1.01 |
| GGTTGCTATT | 0.978 |
| TGATTCATCT | 1.05 |
| CTGCCGCATT | 5.49 |
| ACACCCCTGC | 1.17 |
| CCAAGTATGT | 1.01 |
| TGGAACGGCA | 1.02 |
| CCTTGTGAAT | 1.04 |
| TCTTTAAACC | 1.06 |
| CCCAGATGCC | 1.12 |
| AGTATGGGGC | 1.02 |
| ATCTGATACT | 1.03 |
| CCAGTTCGCT | 1.05 |
| CCCCATCGGC | 1.07 |
| TGGAGGATGT | 0.974 |
| CTTCCGGAAG | 1.03 |
| TACCAACTAG | 1.11 |

From the supplement of paper PMC10126150
